Measurements taken from ChEMBL document CHEMBL4888484, “Replenishing the malaria drug discovery pipeline: Screening and hit evaluation of the MMV Hit Generation Library 1 (HGL1) against asexual blood stage Plasmodium falciparum ,using a nano luciferase reporter read-out” (2022).
Hit rate of the full screen: of about 150,000 compounds, about 540 (0.36%) showed an effect of 50% or more. This is one part of the list.

System: Plasmodium falciparum
Experiment: Primary screen in NF54 nanoGlo assay, in single point, at 2uM, 72h; a lower Z score goes with more inhibition
Assay type: functional, Erythrocyte
Conditions: timepoint 72 hour

SMILES | % Inhibition | Z score
CO[C@H]1COCC[C@@H]1NS(=O)(=O)c1cccnc1 | -10% | 1.9
CCOCC1CN(C(=O)NCC2CS(=O)(=O)c3ccccc32)CCO1 (stereo not drawn) | -16% | 2.07
CC1(C)C(=O)N(c2ccccc2)/C(=N/c2ccc(Cl)cc2)[C@H]1N1CCCC1 | 4% | -0.46
CCOCCOc1ccc(Br)cc1NC(N)=O | -12% | 1.66
CCCc1cnc(N(C)CCC(C)(C)O)nc1 | -4% | 0.81
Cc1cccc(N2CCN(C(=O)[C@@H]3CNC(=O)C3)CC2)c1C | -9% | 1.58
Cn1cc(S(=O)(=O)NC[C@](O)(c2ccoc2)c2ccco2)cn1 | -15% | 2.51
CCN(C(=O)c1cc(C)n(-c2ccc(F)cc2F)n1)c1cccnc1 | -10% | 1.24
Cc1ccn(C)c(=O)c1NS(=O)(=O)c1c(C)noc1C | -6% | 1
CCONC(=O)[C@H](CC)c1ccccc1 | 12% | -1.66
Cc1ccc(S(=O)(=O)N2CCN(C(=O)CCc3c(C)n[nH]c3C)CC2)cc1 | -13% | 1.73
Cc1cc(NC(=O)c2cc(C)on2)no1 | -6% | 0.92
Cc1ccc(NC(=O)c2nn(-c3ccc(C)cc3)c3ccccc3c2=O)cc1 | -15% | 2.23
COc1ccccc1C1CC1C(=O)Nc1c(C)c(C2CC2)nn1-c1ccccc1 (stereo not drawn) | -12% | 1.41
O=C(Nc1ccc(OC(F)(F)Cl)cc1)NS(=O)(=O)Oc1ccccc1F | -9% | 1.16
COc1cc(C(=O)N2CCO[C@H](C)[C@H]2C(N)=O)on1 | -8% | 1.3
CCCc1c2c(nn1-c1ccccc1F)C[C@H](c1ccccc1)CC2=O | 4% | -0.65
Cc1nc(N)nc(-c2cccc(C(=O)N3C[C@H]4CC=CC[C@H]4C3)c2)c1Cl | -6% | 0.73
Cc1nc(C(=O)Nc2ccncc2)c(-c2ccccc2Cl)s1 | -14% | 1.76
CO[C@H]1COCC[C@@H]1NC(=O)c1cccc(CN2CCCCCC2)c1 | 0% | -0.01
CCN(CC)S(=O)(=O)c1ccc2c(c1)nnn2CCC(=O)N1CCN(c2ccccn2)CC1 | 10% | -0.97
Cc1ccc(S(=O)(=O)c2c(NS(=O)(=O)c3ccc(F)cc3)n(CCc3ccccc3)c3nc4ccccc4nc23)cc1 | 98% | -8.73
CC(CC(O)c1ccco1)NC(=O)c1cncc(F)c1 (stereo not drawn) | -9% | 1.11
Cc1cc(C(=O)NC2CCN(C)CC2)ccc1N(C)S(=O)(=O)c1ccc(Cl)cc1 | 1% | -0.1
COc1c[nH]c(C(=O)N2CCc3[nH]c(-c4ccccc4)nc3C2)cc1=O | -10% | 1.52
O=C(NCc1cnn(CCF)c1)[C@H]1CCCN1C(=O)c1ccccc1 | -3% | 0.39
O=S(=O)(CCN1CCCCC1)Oc1ccc(Cl)cc1Cl | 0% | -0.03

SMILES | % Inhibition | Z score
O=C(c1sc2cc(C(F)(F)F)ccc2c1Cl)N1CCNCCNCC1 | 0% | -0.01
O=C(NC[C@]1(O)CCOC1)C1(O)CCCC1 | -4% | 0.46
CC1(C)NC(=O)N(Cc2ccnc(OCC3CC3)c2)C1=O | 3% | -0.53
CCCNc1ccccc1-c1nc(OC)c2cnn(-c3ccccc3)c2n1 | 31% | -3.5
COCc1cc(-c2ccc(C)cc2-n2nc(C)cc2C)ncn1 | -9% | 1.05
COc1ccc(S(=O)(=O)N[C@H]2CCS(=O)(=O)C2)c2c1CCCC2 | -4% | 0.83
Cc1ccccc1Nc1c(-c2ccc(N3CCOCC3)cc2)nc2c(C)cccn12 | -14% | 1.39
Cc1cnn(CCCN2CCO[C@H](c3ccc(Cl)cc3)C2)c1 | 2% | -0.41
Cc1nc(C(=O)OC[C@H]2CCCCO2)cs1 | -12% | 2.28
Cc1csc(CN(C)C(=O)CCCn2cnnn2)n1 | -6% | 0.62
Cn1cccc1-c1noc(CNC(=O)Cc2cccc(Cl)c2)n1 | -18% | 2.27
O=C(c1c(F)cccc1Cl)N1C[C@H](COc2ccncc2)C2(CCOCC2)C1 | -11% | 1.49
CC1(OCC#CCN2CCOCC2)COC(C)(OCC#CCN2CCOCC2)OC1 (stereo not drawn) | -8% | 1.01
Cc1ccsc1[C@H]1CCN(Cc2ccccc2C(=O)O)C[C@@H]1O | -5% | 0.59
O=C(c1ccncn1)N1CCC[C@@H]1CCc1noc(-c2ccccn2)n1 | -18% | 2.94
CC(C)(C(=O)Nc1nc(C2CC2)c(Cc2ccc(F)cc2)s1)n1cc(N)cn1 | 1% | -0.11
CCc1nsc(NC[C@H]2CCCN(CC(F)(F)F)C2)n1 | -13% | 1.5
COCC1(O)CCN(C(=O)[C@H](C)NC(=O)CC2CCCCC2)CC1 | -14% | 1.78
COc1cccc(CN2C(=O)C(=O)N(Cc3ccno3)C2=O)c1 | -15% | 1.37
COCC(=O)NC[C@@H]1C[C@H](F)CN1S(=O)(=O)N(C)Cc1ccccc1 | -16% | 2.09
CN(C)CCC1CCN(C(=O)N[C@H]2CCCC2(C)C)CC1 | -5% | 0.76
C[C@H]1CN(C)CCN1CC(=O)N1CCC(c2ccccc2)=N1 | 2% | -0.15
Cn1cccc1C(=O)N(CC1CCC1)CC(F)(F)F | -7% | 0.97
CCc1onc(C)c1NC(=O)NC[C@H]1CCC[C@@H]1O | -17% | 2.64
O=C(NCc1ccc(F)cc1)[C@@H]1COCC(=O)N1Cc1ccc(F)cc1 | -3% | 0.54
Cc1ccsc1CNc1ccccc1C(=O)NCc1ncc[nH]1 | 2% | -0.38
CC1(C)CN(Cc2c(Cl)cncc2Cl)CC[C@]1(C)O | -3% | 0.33
